# Over roughly 33,000 sequences, “E-score (-0.5 to 0.5)” has its median near -0.012; the highest 2% begin near 0.27. Some of the results follow.
# Biological target: T1, Vhr1 (UniProt P40522)
# T1 sequence: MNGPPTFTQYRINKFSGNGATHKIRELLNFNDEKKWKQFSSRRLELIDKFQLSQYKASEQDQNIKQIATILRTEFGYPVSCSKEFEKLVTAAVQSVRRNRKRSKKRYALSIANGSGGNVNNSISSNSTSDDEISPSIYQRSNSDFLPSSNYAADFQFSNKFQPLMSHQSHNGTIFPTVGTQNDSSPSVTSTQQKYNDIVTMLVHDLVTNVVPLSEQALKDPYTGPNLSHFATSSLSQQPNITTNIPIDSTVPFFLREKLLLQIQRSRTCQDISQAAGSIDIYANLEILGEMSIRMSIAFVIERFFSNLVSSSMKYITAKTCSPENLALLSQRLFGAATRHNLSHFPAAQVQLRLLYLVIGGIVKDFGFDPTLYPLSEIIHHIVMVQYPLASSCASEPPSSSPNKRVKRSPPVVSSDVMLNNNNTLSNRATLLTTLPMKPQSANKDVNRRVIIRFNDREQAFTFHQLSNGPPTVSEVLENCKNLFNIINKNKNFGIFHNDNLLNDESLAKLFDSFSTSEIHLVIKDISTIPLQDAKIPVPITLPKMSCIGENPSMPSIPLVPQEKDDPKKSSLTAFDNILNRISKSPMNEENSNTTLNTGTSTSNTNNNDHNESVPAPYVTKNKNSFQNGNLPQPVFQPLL
# Assay: PBM E-score (8-mer binding enrichment) (E-score (-0.5 to 0.5)); higher = stronger / more preferred TF binding; most listed sequences are background and not binding sites
# Details: protein concentration: 200 nM; construct: GST-full length
# Outline: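 E-scores (a modified Wilcoxon-Mann-Whitney statistic) were assigned by the Universal PBM Analysis Suite to every ungapped eight-base word pooled with its reverse complement. The input came from universal all-10-mer Agilent arrays made double-stranded by primer extension and probed with GST-tagged yeast transcription factors at about 100-200 nM. Fluorescent anti-GST detected bound protein, and masliner normalised the scans.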
row,Sequence,PBM E-score
1,CGAGCGCC,-0.0552
2,AGCTGAGG,-0.131
3,CGAGGACC,-0.0893
4,CCGGTTCG,-0.0156
5,AGCCATGC,0.128
6,AGATGGGG,-0.00259
7,AACTTAGA,-0.254
8,ACGAGCGT,-0.00766
9,CGTCTGGA,-0.0153
10,AGCTCACA,-0.0321
11,CACTAGAC,0.0875
12,ACTGCTAA,-0.231
13,ATAGTGCA,-0.056
14,GGATCCTA,-0.0765
15,AGCTTTAT,-0.243
16,GACATTGA,-0.0452
17,AAATAGCA,-0.229
18,CTCGCGGA,0.0268
19,CCATCCAG,0.077
20,ATTTCCAA,-0.268
21,CCCATCAA,0.137
22,TGCTGCCA,-0.00984
23,CACCTTCC,0.106
24,AAAGTCTA,-0.357
25,ATTCCACA,0.231

row,Sequence,PBM E-score
1,GAGAACAA,0.00865
2,ACTGACGC,-0.178
3,AGGACTTG,-0.0923
4,GCGAAGGA,-0.0901
5,GTATAGGA,-0.121
6,GCCCCAGC,-0.0658
7,AAGTTCCC,-0.169
8,GGTTCCAC,-0.0956
9,CGCCCGGA,-0.0796
10,CACTGCAA,0.0472
11,CCATAAGG,-0.0996
12,AATCGGCG,-0.101
13,TAAGGTCA,-0.0887
14,ACGTCGCT,-0.18
15,ACGTAGAA,0.0335
16,TGAATCAA,0.267
17,ATCATCTC,0.201
18,GTTCAACA,-0.0787
19,AAACACCA,0.129
20,ACGGCCCA,0.0113
21,CAGTCTAG,-0.131
22,AGTTTCCG,-0.0842
23,ATTGGGCA,-0.189
24,CTAGGTCA,0.0199
25,ATCGCTGG,-0.0087

row,Sequence,PBM E-score
1,CACACGGA,0.0457
2,GGGCTACC,-0.136
3,CTGCGACA,0.0241
4,ATAGTACG,0.231
5,CAATGATC,0.0242
6,ATTGGACA,0.12
7,AAGCCAAG,-0.0392
8,CATCGATG,0.302
9,ATGTAGAC,0.0122
10,ATAGTTAG,0.0663
11,TAGGATGA,0.17
12,GTATTGTA,0.0913
13,CTCAAGAG,-0.287
14,AGCTCTAA,-0.127
15,AGCATGCA,0.0173
16,CACTAATA,0.179
17,AGACACCT,0.0122
18,CCTTACCG,-0.0858
19,ATATTGTA,0.211
20,AGTTTGAA,-0.087
21,CTCTCAGC,-0.233
22,CCCGCTCG,-0.0213
23,ACGCAGAA,0.00834
24,ACAATTGA,0.0612
25,GTTTAAGA,-0.163

row,Sequence,PBM E-score
1,ACCGCAGC,0.132
2,AGATTAAC,-0.063
3,ATACCAGG,-0.0349
4,CCACGGGC,0.0619
5,GTCTGGTA,0.0181
6,GATGAAGC,0.00702
7,GGCTCGAA,-0.0341
8,TCTACCCA,0.239
9,GAGGACCC,-0.0811
10,ATAATCAG,0.0967
11,CATGGGTA,0.27
12,CGTATGAC,0.142
13,ACCTAGCG,-0.191
14,ATAGCTGG,-0.0684
15,AGGGGCGG,0.348
16,CAATAGGG,0.0965
17,CGAGTCCC,0.186
18,ACATTGTC,0.21
19,AAACCCAC,0.209
20,CACGTAAG,-0.163
21,CCGCTGTC,-0.0214
22,AAGCCTGC,-0.0256
23,ATTGACAA,-0.136
24,TATACCGA,0.015
25,CCAGCAAA,0.165

row,Sequence,PBM E-score
1,AAATTTGC,-0.273
2,AAATACTA,-0.0647
3,TAACAACA,0.0828
4,CTTGTTGC,0.106
5,ATTAGCCG,0.0068
6,CACGTGCG,-0.0625
7,CACCTCCA,0.0657
8,ACACGTTA,-0.105
9,AAAAATTC,-0.198
10,AAAAGCAC,-0.262
11,ACCATAGC,0.081
12,CTCTTTGC,-0.2
13,AACAGTTC,0.0166
14,GTTAACAA,0.0338
15,CGGTGCAG,-0.198
16,ACCTCTAC,-0.0884
17,GGACCCCA,0.136
18,CAACTTTC,-0.0821
19,GAGAGGTA,-0.109
20,GTAGATTA,0.128
21,CTAGACAC,-0.0101
22,ATAGGCTA,-0.0189
23,CCTAATTC,-0.0361
24,TGCAGGAA,0.041
25,AAAAACCG,-0.111

row,Sequence,PBM E-score
1,AAGACGGA,0.0362
2,TATCTGAA,-0.161
3,CTCGACCC,0.259
4,ATAGGAGC,-0.0762
5,AATTTCGA,-0.149
6,GAAGAGAA,-0.115
7,CATATGGG,0.263
8,CAAATCAC,0.0735
9,AGATGCCT,-0.203
10,AGTAAACG,-0.00785
11,CGATGAAA,-0.0595
12,AATACTTC,-0.0901
13,CGTAACCC,-0.0872
14,ACATCGTC,0.217
15,CATTGTCC,-0.0189
16,GTCGCACA,0.0469
17,GCGCCAAA,-0.0935
18,CCTCGGAC,-0.13
19,ACTCGACG,0.269
20,GCCTCCGC,-0.022
21,CCGATTAA,-0.109
22,GCCGTCCC,-0.0648
23,CATCTGTC,-0.059
24,CCAGTCCA,-0.0216
25,CCCAAATC,-0.0483

row,Sequence,PBM E-score
1,AACAGGAA,-0.127
2,AGCAGGTC,-0.0671
3,AGACTGCA,0.0124
4,CCAGGATC,0.0101
5,ATCACTCG,0.113
6,AGCTGCAG,-0.0288
7,GTTTTAGA,-0.194
8,CCTAAAGG,-0.299
9,GCTCCTTA,-0.134
10,TCGCCCCA,0.0408
11,AACTACGA,0.0612
12,AAGCACTA,-0.0763
13,CACTAGGA,-0.0545
14,TATTGGCA,0.162
15,ATGTTAGA,-0.223
16,CTATTATA,0.0973
17,CCACTACC,0.0705
18,GGAGCGCC,0.00749
19,CCTCCGAC,-0.0621
20,CTAACACA,0.269
21,CCCGAGCC,0.104
22,AACGAATG,0.0805

# Source: the supplement of paper PMC3334620
